The campaign covered roughly 52,000 compounds. About 1,700 (3.3%) were called active. Cut-off read from the data, not from the text of the source: active = survival mostly below about 52% (no sharp cut-off); inactive = mostly above about 56%. Some of the results follow.
These compounds were tested on Wild type (assay: S. aureus survival, RN4220 and DeltatarO strains – OD600, teichoic acid synthesis inhibitors, primary screen (AID 463173)). Conditions: S. aureus RN4220 wild type/DeltatarO growth, OD600, 18 h, active compounds read low, screened at 18.75 µg/mL (by protocol).
With O=C(CN1CCC(n2cnc3cc(F)ccc32)CC1)Nc1ccccc1Br the survival was inactive: 108%. In the case of COc1ccc(/C=C/c2nc(C#N)c(NCc3ccc(C)cc3)o2)cc1OC, the survival is reported as inactive: 100%. In the case of COc1ccc(Cn2c(SC)nc3ccccc32)cc1, the survival is reported as inactive: 108%. CCOc1nc(-c2ccccc2)ccc1-c1noc(-c2ccc(C)cc2)n1 was tested, and the survival was inactive: 109%. In the case of c1cncc(-c2nnc(SCC3CCCCC3)o2)c1, the survival is reported as inactive: 103%. With CCOc1ccc(NC(=O)CC2C(=O)N(c3ccccc3)C(=O)N2CCc2sccc2C)cc1 (stereo not given) the survival was inactive: 80%. In the case of O=C(Cn1cc(SCc2cccc(Cl)c2)c2ccccc21)N1CCCCC1, the survival is reported as inactive: 81%. Cc1c(C(=O)OC2CCC(C)CC2)[nH]c2c1C(=O)CC(c1ccc(N(C)C)cc1)C2 (stereo not given) was tested, and the survival was inactive: 80%. COc1ccc(S(=O)(=O)c2c(C(=O)c3ccc(C)c(C)c3)cnc3ccc(C)cc23)cc1 was tested, and the survival was inactive: 84%. With Fc1ccc(-c2cc(-c3nc(-c4ccc(Cl)cc4)no3)[nH]n2)cc1 the survival was inactive: 72%. With O=C1C2C3c4ccccc4C(c4ccccc43)C2C(=O)N1Cc1ccco1 (stereo not given) the survival was inactive: 124%. In the case of NC(=O)C1CCN(C(=O)c2cc(-c3ccccc3)on2)CC1, the survival is reported as inactive: 121%. CC(=O)c1ccc(NC(=O)c2nc(-c3ccc(Cl)cc3)n3c2CCCCC3)cc1 was tested, and the survival was inactive: 70%. In the case of CC(C)(C)OC(=O)N1CCC(c2c(C(=O)N3CCN(C(=O)c4ccco4)CC3)cnn2-c2cccc(Cl)c2)CC1, the survival is reported as inactive: 95%. For COC(=O)c1cc(NC(=O)CC2C(=O)OCCN2Cc2ccccc2)cc(C(=O)OC)c1 (stereo not given), the survival was inactive: 147%. For COc1cccc(OCC(=O)NC2CC(=O)N(c3cccc(OC)c3)C2)c1 (stereo not given), the survival was inactive: 124%. Cc1ccccc1CSc1nc2c(sc3ccccc32)c(=O)n1CCCC(=O)NCCCOC(C)C was tested, and the survival was inactive: 87%. With COc1ccc(NC(=O)Cn2c(=O)c3ccccc3n3nncc23)cc1Cl the survival was inactive: 87%. CN(c1nnc(NC(=O)Nc2ccccc2C(F)(F)F)s1)C1CCCCC1 was tested, and the survival was inactive: 117%. Cc1cc(C)c2c(=O)cc(C(=O)Nc3sc4c(c3C(=O)NCc3ccco3)CCCC4)oc2c1 was tested, and the survival was inactive: 88%. With CS(=O)(=O)CC[C@@H](C(=O)NCCc1ccccc1)N1Cc2ccccc2C1=O the survival was inactive: 90%. Cc1cc2c(=O)[nH][nH]c(=S)n2n1 was tested, and the survival was inactive: 101%. With Cc1cccc(OCC(=O)N2CCC(c3nc4ccccc4o3)CC2)c1C the survival was inactive: 72%. In the case of COCc1cc(C)nc2c1C(=O)NC(c1ccc(NC(C)=O)cc1)N2Cc1ccccc1 (stereo not given), the survival is reported as inactive: 89%. For Cn1c(=O)c2c(nc(CN3CCN(CCO)CC3)n2CCCc2ccccc2)n(C)c1=O, the survival was inactive: 103%. In the case of COCCN1Cc2cccc(C(=O)N(CC(=O)NC3CCCCC3)Cc3ccc4c(c3)OCO4)c2C1=O, the survival is reported as inactive: 113%. Cc1ccc(NC(=O)CN2C(=O)c3cccnc3Sc3ccccc32)c(Br)c1 was tested, and the survival was inactive: 82%. With Cc1ccc(Nc2c3c(nc4nncn24)CCC3)c(C)c1 the survival was inactive: 107%. With COc1ccc2c(c1)-c1nc(NC(=O)c3cccc(Br)c3)sc1CC2 the survival was inactive: 54%. For CC1CCN(S(=O)(=O)c2cc(C(=O)N3CCN(c4cccc(Cl)c4)CC3)n(C)c2)CC1, the survival was inactive: 82%. In the case of O=C(C1COc2ccccc2O1)N(Cc1cccnc1)c1nc2c(F)cccc2s1 (stereo not given), the survival is reported as inactive: 66%. For CCOC(=O)c1c(NC(=O)c2cc(-c3cccc(Cl)c3)on2)sc(C(C)=O)c1C, the survival was inactive: 84%. In the case of COc1ccc(N(CC(=O)N2CCc3ccccc3C2)S(=O)(=O)c2ccccc2)cc1, the survival is reported as inactive: 79%. In the case of Cc1nccn1S(=O)(=O)c1ccc(Cl)cc1Cl, the survival is reported as inactive: 105%. For CCOc1ccc(S(=O)(=O)c2cn(CC)c3ccc(F)cc3c2=O)cc1, the survival was inactive: 87%. With CCOC(=O)c1nnn(C(CC)C(=O)Nc2ccc(F)cc2)c1C(=O)OCC (stereo not given) the survival was inactive: 99%. With COc1ccccc1C1C(C(=O)N2CCCCC2)=C(C)Nc2nc3ccccc3n21 (stereo not given) the survival was inactive: 63%. In the case of COc1cccc(/C=C/c2nc(C#N)c(NC3CCCCC3)o2)c1, the survival is reported as inactive: 83%. For CSc1ccc(CCNC(=O)Cn2c(C)c3cnn(-c4ccccc4)c(=O)c3c2C)cc1, the survival was inactive: 98%. In the case of Cc1cccc2cc(C#N)c(N3CCC(C)CC3)nc12, the survival is reported as inactive: 102%. O=C1NCCCC1C(=O)N1CCc2ccccc21 (stereo not given) was tested, and the survival was inactive: 105%. For CC1=NN(c2ccccc2)C(=O)C1CCC#N (stereo not given), the survival was inactive: 114%. For Cc1ccc(CNC(=O)c2ccc(Cn3c(SCc4ccc(F)cc4)nc4cccnc43)cc2)o1, the survival was inactive: 84%. For O=c1n(Cc2ccc(F)cc2)c2ccccc2c2nc(-c3ccccc3)nn12, the survival was inactive: 86%. COc1cccc(-n2c(=O)c3sc4ccccc4c3n(Cc3c(F)cccc3Cl)c2=O)c1 was tested, and the survival was inactive: 81%. For Cc1ccc(-n2nc(CO)c(C(=O)NCCC(C)C)n2)cc1C, the survival was inactive: 116%. With CCc1cccc(NC(=O)CSc2nnc(-c3cc4occc4n3C)n2-c2ccccc2C)c1 the survival was inactive: 71%. CCOC(=O)c1c(C)oc2nc(C)nc(NCC3CCN(Cc4cc(C)ccc4C)CC3)c12 was tested, and the survival was inactive: 89%. With CCCN(C(=O)CCc1nc(-c2ccc(C)cc2)no1)c1ccc(OCC)cc1 the survival was active: 0%. Cc1ccc(N2C(=O)C(CC(=O)Nc3cccc(F)c3)N(CCc3ccccc3F)C2=O)cc1 (stereo not given) was tested, and the survival was inactive: 134%. With COc1cccc(NC(=O)N(CCC(C)C)C2CCN(C(C)C)CC2)c1 the survival was inactive: 55%. For CC1=Nc2ccc(Cl)cc2C(c2ccccc2)N1CC(=O)NN (stereo not given), the survival was inactive: 99%. CCCSc1ncc(Cl)c(C(=O)N(Cc2ccccc2)c2ccc(OC)cc2)n1 was tested, and the survival was inactive: 80%. Cc1ccccc1OCC(=O)Nc1ccc(-c2nc3cc(Cl)cc(Cl)c3o2)cc1 was tested, and the survival was inactive: 81%. For CCN(C(=O)c1cccc(Cl)c1)C1CCCCC1, the survival was inactive: 107%. With Cc1ccc(CNC(=O)C2CCN(S(=O)(=O)c3ccc4nc5c(c(C(=O)O)c4c3)CC(C)CC5)CC2)cc1 (stereo not given) the survival was inactive: 84%. In the case of CCc1cnc2c(c1SCC(=O)NCc1ccc(C)cc1)c(=O)n(C)c(=O)n2C, the survival is reported as inactive: 67%. CC(=O)c1ccc(NS(=O)(=O)c2ccc(Br)s2)cc1 was tested, and the survival was inactive: 69%. With Nc1cc(=O)[nH]c2n[nH]c(=S)n12 the survival was inactive: 111%. For Cn1ccc2c(OCC(=O)Nc3ccc(OC(F)(F)F)cc3)cccc2c1=O, the survival was inactive: 76%. COc1ccc(NC(=O)C(C)Sc2nc(C)cc(=O)[nH]2)cc1 (stereo not given) was tested, and the survival was inactive: 121%. For O=C(COc1ccccc1)N=Nc1c(O)[nH]c2ccccc12, the survival was inactive: 117%. With COc1cc(Cl)c(C)cc1NC(=O)c1cc2c(=O)oc3ccccc3c2s1 the survival was inactive: 130%. In the case of CCn1cc(C(=O)N2CCN(c3cc(Cl)ccc3C)CC2)c(=O)c2cc(S(=O)(=O)N3CCCC3)ccc21, the survival is reported as inactive: 87%. CCOc1ccc(C(=O)OCc2cc(=O)n3nc(C4CC4)sc3n2)cc1 was tested, and the survival was inactive: 87%. For O=C(CN1C(=O)CSC1=O)NC1CCCCC1, the survival was inactive: 104%. COc1cc2nc(SCC(=O)Nc3ccccc3C)n3nc(CCn4c(C)nc5ccccc54)nc3c2cc1OC was tested, and the survival was inactive: 96%. CC(C)(C)C1CCc2c(sc(NC(=O)c3ccco3)c2C(=O)Nc2ccccc2Cl)C1 (stereo not given) was tested, and the survival was inactive: 108%. With CCOC(=O)c1ccc(N2CCN(c3ccccc3OC)CC2)c(NC(=O)Nc2ccc(CC)cc2)c1 the survival was inactive: 80%. With CCOC(=O)CSc1nc2ccc(NC(=O)COc3ccc(F)cc3)cc2s1 the survival was inactive: 117%. Cc1cccc2sc(N(Cc3cccnc3)C(=O)CCOc3ccccc3)nc12 was tested, and the survival was inactive: 105%. For CCOCCCNC(=O)c1cn(CC)c2ccc(S(=O)(=O)N3CCOCC3)cc2c1=O, the survival was inactive: 81%. For COc1ccc(CNC(=O)C2=CC(c3ccc(OC)c(OC)c3)=NS(=O)(=O)N2C)cc1, the survival was inactive: 75%. With Cc1cc(C(=O)N2CCN(c3cccc(Cl)c3)CC2)c2c(C)nn(-c3ccccc3Cl)c2n1 the survival was inactive: 74%. With Cc1cc(OC(=O)c2cccs2)cc(OC(=O)c2cccs2)c1 the survival was inactive: 109%. With Cc1cc(C)c(NC(=O)C2CCN(S(=O)(=O)c3c(C)noc3/C=C/c3ccccc3F)CC2)c(C)c1 the survival was inactive: 85%. With COc1ccc(S(=O)(=O)c2c(Nc3ccc(C)cc3C)sc(C(=O)c3ccc(F)cc3)c2N)cc1 the survival was inactive: 153%. With CCOc1ccc(NC(=O)N(Cc2cn(CC)c3ccccc23)C2CCCCCC2)cc1 the survival was active: 0%. CN(C)c1ccc(C(CNC(=O)c2ccccc2Cl)N2CCCC2)cc1 (stereo not given) was tested, and the survival was inactive: 71%. In the case of O=C(O)CC(NC(=O)c1ccco1)c1ccc(F)cc1 (stereo not given), the survival is reported as inactive: 105%. Cc1nnsc1C(=O)Oc1ccc(Cl)cc1 was tested, and the survival was inactive: 81%. For COc1ccc(N2CCN(CCCNC(=O)c3cnn(-c4ccc(C)cc4)c3-n3cccc3)CC2)cc1, the survival was inactive: 83%. For O=C(CSc1nc2c([nH]c3ccccc32)c(=O)n1-c1cccc(Cl)c1)c1ccccc1, the survival was inactive: 60%. With O=C(NCc1ccccc1)C(=O)NCC(c1cccs1)S(=O)(=O)c1cccs1 (stereo not given) the survival was inactive: 65%. In the case of CCC(Sc1nnc2c(n1)[nH]c1ccccc12)C(=O)Nc1ccccc1OC (stereo not given), the survival is reported as inactive: 98%. In the case of CCc1ccccc1S(=O)(=O)Cc1ccc(C(=O)NCCc2ccc(C)cc2)o1, the survival is reported as inactive: 82%. For Cc1cc(C)cc(C(=O)NCCc2csc(-c3ccc(C(F)(F)F)cc3)n2)c1, the survival was inactive: 83%. With CCc1ccccc1NC(=O)CSc1ncc2c(n1)-c1cc(Cl)ccc1N(Cc1ccccc1)S2(=O)=O the survival was inactive: 88%. For Cc1ccc(Cn2c(=O)n(CCCCC(=O)NCc3ccc4c(c3)OCO4)c(=O)c3ccccc32)cc1, the survival was inactive: 90%. In the case of COc1cccc(N2CCN(C3=NS(=O)(=O)C(c4ccc(C)cc4)=C3C)CC2)c1, the survival is reported as inactive: 85%.

— PubChem BioAssay AID463173 (ICCB-Longwood Screening Facility, Harvard Medical School, 2010)
